Reference: US6130250A, “Veterinary use of a pleuromutilin derivative” (priority 1996, dated 2000)
Where a name gives a salt, the structure may show the parent alone. Read-outs that look alike come from different tables or passages of the source.

What was measured:
M. hyopneumoniae [1] = test: MIC, liquid medium, field isolates and type strain J of M. hyopneumoniae; format: cell-based, Mycoplasma hyopneumoniae; details: for MIC: Mesomycoplasma hyopneumoniae
Method: Ten field isolates from outbreaks of enzootic pneumonia in different herds and the type strain "J" are included in the test. […] The test for minimal inhibitory concentration (MIC) is performed in liquid medium ([…]. et al., Acta Vet. […] The mycoplasmas are inoculated in 10 fold dilutions, and the cultures read visually for growth using tubes seeded with 10^2 to 10^4 colour forming units. […] MIC is determined as the lowest concentration of test compound showing inhibition of growth compared to control ([…]. and Szancer, J., Acta Vet. Scand. 35 [1994] 389-394).

M. hyopneumoniae [2] = test: MIC, microtitre broth, ten field isolates and type strain J of M. hyopneumoniae; format: cell-based, Mycoplasma hyopneumoniae; details: for MIC / MIC50 / MIC90: Mesomycoplasma hyopneumoniae
From the text: Tissue samples are obtained from the lungs of pigs from various enzootic pneumonia of pigs (EPP)-affected herds. Samples are shipped on dry ice for culture. M. hyopneumoniae is recovered from freshly sectioned lung tissue by direct culture onto Mycoplasma Experience agar. This technique allows the distinctive colonies of M. hyopneumoniae to be recognised and readily separated, by cloning from other faster growing mycoplasma species such as Mycoplasma hyorhinis, often present in EPP lung samples. Isolates are subcultured and identified by disc growth inhibition using specific rabbit antiserum raised to M. hyopneumoniae NCTC 10110.
Cultures for antibiotic challenge are prepared in Mycoplasma Experience broth, incubated aerobically at 36° C.
A commercially available solid medium (Mycoplasma Experience Ltd.) is used to isolate M. hyopneumoniae from lung tissue. A liquid medium (Mycoplasma Experience Ltd.) containing phenol red and glucose (pH 7.6) is used for the MIC assays.
Stock solutions of test compound are prepared at 1 mg/ml concentration in deionised water, sterilised by filtration through 0.2μ pore size membrane filters (Sartorius Minisart, N) and stored at -20° C. For use in the MIC tests the stock solutions are diluted in liquid medium to double the final concentrations required. MIC tests are carried out according to the method of Tanner & Wu, Avian Diseases 36 (1992) 714-717. Actively growing challenge cultures are prepared either from 1 ml aliquots of broth cultures stored at -70° C. or from cultures stored on agar at -70° C. The challenge cultures are diluted to give a target titre of 10^3 to 10^5 colour changing units/ml. 0.1 ml aliquots of challenge inocula are mixed with 0.1 ml aliquots of antibiotic dilution in microtitre wells. Each microtitre plate contains uninoculated media at pH 6.8 (M. hyopneumoniae) (end point control) and antibiotic-free inoculated challenge controls. All plates are sealed with adhesive film and incubated aerobically at 36° C. MICs are recorded when the colour change in the challenge control wells match the pH of the end point control. The MIC is the lowest concentration showing no colour change.

[3] = system: mycoplasma isolates of chicken origin; test: MIC, serial microdilution, mycoplasma isolates of chicken origin; format: cell-based
Method: (§1) The antimicrobial effect of vainemulin hydrochloride is determined by means of a standard serial microdilution technique in comparison to tylosin (Tylan soluble) and tiamulin hydrogen fumarate.
(§2) 12.8 mg of the test compound are dissolved in 100 ml of distilled water to obtain a stock solution which is stored at -20° C. until used. Mycoplasma gallisepticum reference strain used are X95, S6 Holland, S6 Bench (England), MS-16 (Japan), MK-7 (Japan) and 1226, and various fresh field isolates.
(§3) The antibiotic-sensitivity of the strains is examined using a modified microbroth dilution procedure (Stipkovits et al., Vet. Microbiol. 15 [1987] 65-70). Testing medium is added (100 μl) to all the wells of microtitration plates, using doubling dilutions of antibiotics. The inoculum (100 μl) contains 10^5 cfu/ml. The plates are sealed with sellotape and incubated at 37° C. over a period of 3 days. The lowest concentration of the antibiotic completely preventing colour change of the media at the third day reading is the minimal inhibitory concentration (MIC). The wells without colour range are checked for viability of mycoplasmas by plating them on agar medium. All Mycoplasma strains are propagated in 10 ml of medium B (Ern.o slashed., H. and Stipkovits, L., Acta Vet. Scand. 14 [1973] 436-449). After incubation at 37° C. until early log phase of growth, 1 ml aliquots of culture are dispensed in tubes as seed cultures and stored at -20° C. The glucose fermenting Mycoplasma strains are tested in modified medium Bg supplemented with 1% glucose (pH 7.8), the arginine hydrolysing strains in medium Ba (Ern.o slashed., H. and Stipkovits, L., supra, 450-463) containing 1% arginine (pH 7.3) and the glucose- and arginine-negative strains in medium B including 1% triphenyltetrazolium chloride.
(§4) The average MIC values for different strain groups and antibiotics taking into consideration dilutions are calculated.

Mycoplasma gallisepticum = test: MIC, serial microdilution, Mycoplasma gallisepticum reference strains; format: cell-based; details: Mycoplasmoides gallisepticum, read-out: MIC
Method: as §1, §2, §3, §4

[4] = final reading 10-14 days, Table 1 line 1 (1 strain), read-out: MIC final
[5] = final reading 10-14 days, Table 1 line 2 (1 strain), read-out: MIC final
[6] = final reading 10-14 days, Table 1 line 3 (3 strains), read-out: MIC final
[7] = final reading 10-14 days, Table 1 line 4 (5 strains, comprises type strain), read-out: MIC final
[8] = final reading 10-14 days, Table 1 line 5 (1 strain), read-out: MIC final
[9] = initial reading 2-4 days, Table 1 line 1 (1 strain), read-out: MIC initial
[10] = initial reading 2-4 days, Table 1 line 2 (1 strain), read-out: MIC initial
[11] = initial reading 2-4 days, Table 1 line 3 (3 strains), read-out: MIC initial
[12] = initial reading 2-4 days, Table 1 line 4 (5 strains, comprises type strain), read-out: MIC initial
[13] = initial reading 2-4 days, Table 1 line 5 (1 strain), read-out: MIC initial
[14] = NCTC10110, Type Strain J (NCTC 10110), read-out: MIC
[15] = field strains (n = 10), read-out: MIC range
[16] = read-out: MIC range (sensitivity), avian field isolates

C=C[C@]1(C)C[C@@H](OC(=O)CSCCN(CC)CC)[C@]2(C)[C@H](C)CC[C@]3(CCC(=O)[C@H]32)[C@@H](C)[C@@H]1O [tiamulin hydrogen fumarate]
0.01 to 0.05 µg/mL: MIC (M. hyopneumoniae [2]; [15])
0.25 µg/mL: MIC ([3]; isolate 20002, read-out: MIC) | MIC ([3]; isolate 20174, read-out: MIC) | MIC ([3]; isolate 20176, read-out: MIC) | MIC ([3]; isolate 20177, read-out: MIC) | MIC ([3]; isolate 20312, read-out: MIC) | MIC (Mycoplasma gallisepticum; strain 1226)
0.05 µg/mL: MIC (M. hyopneumoniae [1]; [4]) | MIC (M. hyopneumoniae [1]; [11]) | MIC (M. hyopneumoniae [1]; [12]) | MIC90 (M. hyopneumoniae [2]; field strains (n = 10))
0.1 µg/mL: MIC (M. hyopneumoniae [1]; [5]) | MIC (M. hyopneumoniae [1]; [6]) | MIC (M. hyopneumoniae [1]; [7]) | MIC (M. hyopneumoniae [1]; [8]) | MIC (M. hyopneumoniae [1]; [13]) | MIC (M. hyopneumoniae [2]; [14])
1 µg/mL: MIC ([3]; isolate 20224, read-out: MIC) | MIC ([3]; isolate 20472, read-out: MIC) | MIC ([3]; isolate 20474, read-out: MIC)
0.06 to 1 µg/mL: MIC [3, 16]
0.5 µg/mL: MIC ([3]; isolate 20175, read-out: MIC) | MIC ([3]; isolate 20178, read-out: MIC) | MIC ([3]; isolate 20473, read-out: MIC) | MIC ([3]; isolate 20475, read-out: MIC)
0.025 µg/mL: MIC (M. hyopneumoniae [1]; [9]) | MIC (M. hyopneumoniae [1]; [10]) | MIC50 (M. hyopneumoniae [2]; field strains (n = 10))
0.0312 µg/mL: MIC (Mycoplasma gallisepticum; strain Bench) | MIC (Mycoplasma gallisepticum; strain Holland) | MIC (Mycoplasma gallisepticum; strain MK-7) | MIC (Mycoplasma gallisepticum; strain MS-16)

C=C[C@]1(C)C[C@@H](OC(=O)CSC(C)(C)CNC(=O)[C@H](N)C(C)C)[C@]2(C)[C@H](C)CC[C@]3(CCC(=O)[C@H]32)[C@@H](C)[C@@H]1O [valnemulin hydrochloride, 14-O-[1-[(R)-2-amino-3-methylbutyrylamino]-2-methylpropan-2-ylthioacetyl]mutilin]
10-40 times: MIC times less than those for tiamulin (M. hyopneumoniae [1]; initial and final readings)
0.0005 µg/mL: MIC50 (M. hyopneumoniae [2]; field strains (n = 10))
0.0312 µg/mL: MIC ([3]; isolate 20224, read-out: MIC) | MIC ([3]; isolate 20312, read-out: MIC) | MIC ([3]; isolate 20321, read-out: MIC) | MIC ([3]; isolate 20472, read-out: MIC) | MIC ([3]; isolate 20473, read-out: MIC) | MIC ([3]; isolate 20474, read-out: MIC) | MIC ([3]; isolate 20475, read-out: MIC) | MIC (Mycoplasma gallisepticum; strain 1226) | MIC (Mycoplasma gallisepticum; strain Bench) | MIC (Mycoplasma gallisepticum; strain Holland) | MIC (Mycoplasma gallisepticum; strain MS-16)
0.00025 to 0.001 µg/mL: MIC (M. hyopneumoniae [2]; [15])
at least five times lower: MIC compared with enrofloxacin (M. hyopneumoniae [2]; individual strains)
0.001 µg/mL: MIC (M. hyopneumoniae [1]; [9]) | MIC (M. hyopneumoniae [1]; [10]) | MIC (M. hyopneumoniae [1]; [11]) | MIC90 (M. hyopneumoniae [2]; field strains (n = 10))
0.0025 µg/mL: MIC (M. hyopneumoniae [1]; [4]) | MIC (M. hyopneumoniae [1]; [5]) | MIC (M. hyopneumoniae [1]; [6]) | MIC (M. hyopneumoniae [1]; [7]) | MIC (M. hyopneumoniae [1]; [8]) | MIC (M. hyopneumoniae [1]; [12]) | MIC (M. hyopneumoniae [1]; [13]) | MIC (M. hyopneumoniae [2]; [14])
highly susceptible: susceptibility of M. hyopneumoniae strains (M. hyopneumoniae [1]; all strains tested) | susceptibility of field isolates (M. hyopneumoniae [2]; field isolates)
0.03 to 0.06 µg/mL: MIC [3, 16]
0.0078 µg/mL: MIC (Mycoplasma gallisepticum; strain MK-7)
